# Measurements published in the supplement of paper PMC12632987.
# Over roughly 2,300 sequences, “median log2 fold change of GCK-ALFA target abundance (FLAG IP / Myc IP barcode read proportion)” has its median near 0.095; the lowest 2% begin near -0.47. This is one part of the list.
# B1: LC3A_28_1147 (protein)
# chain: SAEVEAAKKQIDEDAEKDKNEEEVYLNVTITSSMTKEEVEEIMDHVEEVVEKLKDKKKIYVVVTFTEPVSQEVLDTALEKGDEIEKKFPKVDVIVALPEY
# B2: LC3A_free_26_2131 (protein)
# chain: EEFIDIVALDEAIRLLEEVLKLLEANPNASEEQKELAKKAIEEAKKETLESLEKALKLIKELKKLVEKNKSLPEEVKKKLLELLEEAEKKLEEVIKIMKE
# B3: LC3A_3_1483 (protein)
# chain: MAAARAALLAALRAAGASDETLAAVAAALDALEAKGYTAAAATFIAVMRANLGLPDEDLLAIAELALELVQTSSLSEAELAARITQIAEDVAGIEELDEE
# B4: LC3A_28_1170 (protein)
# chain: SETEENAKKALEEAKKAAEAGEPALIELSLPSGATQEEVDKVIKTMEEIAELLKDIPGSAILVDIDSGVKQEHIDKLMDKGDEIEKKYPNVSVIFALDED
# B5: LC3A_free_39_2226 (protein)
# chain: SQEELDELIKELAKEAGLPYEEVKKKIEEIQKIGGLSTEQMIEIVKALLEAVKAGADAEEILKEAVELAKELKAQGKSPEEIAEAILQLIEDYRNLVPLD
# B6: LC3A_28_675 (protein)
# chain: MELRENLEKALKEAKEAAAKGEPTVIVIKIPGDATEEEIEELIEKLEEIAEILKDVKGSAIIIDLSKKLKQEHRDKIIDKAEEINEKYPNVTVIIALEEE
# B7: LC3A_3_1691 (protein)
# chain: MEEKVQEVLELLKEIGADEETLKAAKELLEELTKRGYLEAIKTLLEELKKLKNLPSEILKAMFEDLLHKVRTENLSEEEVVELIKEEAEVAKNEAEIEEL
# B8: LC3A_3_1745 (protein)
# chain: MEEKLEEIRKELEELGFSEEVIEAALEVAKALLERGFEEAVKVLLEELKKLKDVPDEILLAMLEDIKRYIEENDINEEEAIEKIKEEARIARNEAEIEEL
# Biological target: MAP1LC3A, Q9H492
# Assay: median log2 fold change of GCK-ALFA target abundance (FLAG IP / Myc IP barcode read proportion) (log2 ratio); each designed protein is fused to an ALFA-tag nanobody in HEK293 cells to bring the named protein to FLAG-tagged glucokinase (GCK); Myc marks an untargeted standard; higher = target protein stabilised (more abundant)
# Settings: target protein: 3xFLAG-MCP-GCK-ALFA reporter; HEK293 landing pad (RPLP)
# How it was run: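 HEK293 landing-pad cells received a recombined binder library fused to the ALFA nanobody and were induced with 2 μg mL^−1 doxycycline, then transfected with a plasmid encoding a FLAG-tagged target and a Myc-tagged standard. Lysates were collected after 48 h for anti-FLAG and anti-Myc immunoprecipitation, and the circular RNA barcodes were reverse transcribed, amplified and sequenced. Target abundance for each binder is the median log2 ratio of FLAG to Myc barcode read proportions. Barcodes had to reach a proportion of at least 10^−7 in both replicates, each binder needed at least 3 barcodes per replicate, a pseudocount of 10^−6 was applied, and the two replicates were pooled.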
row,Binder,median log2 fold change
1,B1,-0.475
2,B2,-0.219
3,B3,-0.0039
4,B4,-0.424
5,B5,0.267
6,B6,0.0592
7,B7,0.187
8,B8,0.167
